Test results as given in the supplement of paper PMC9135407.
Values joined by “and” are separate entries in the source; they are usually repeats but may differ in a detail not shown here. Equal values may be shown once. Where a name gives a salt, the structure may show the parent alone. The campaign covered roughly 5,800 compounds. About 620 (11%) showed activity.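 How the source made its calls: active = score above a cut-off or among the top three wells of a plate; in these data no inactive exceeds 0.85.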 This is a selection; strong and weak results do not stand in their true shares.

Test system: primary human hepatic stellate cells (donor 1)
Experiment: scaled lipid accumulation score (0 = DMSO-like, 1 = nortriptyline-like); higher = stronger HSC inactivation (lipid re-accumulation), active = hit call of the paper
Conditions: 48 h
[1] = library stock concentration: 3.33 mM
[2] = library stock concentration: 10 mM
[3] = library stock concentration: 80 uM
[4] = library stock concentration: 400 uM
[5] = library stock concentration: 2 mM
[6] = library stock concentration: 1 mM

CC[C@H]1OC(=O)[C@H](C)[C@@H](O[C@H]2C[C@@](C)(OC)[C@@H](O)[C@H](C)O2)[C@H](C)[C@@H](O[C@@H]2O[C@H](C)C[C@H](N(C)C)[C@H]2O)[C@](C)(O)C[C@@H](C)[C@@H]2N[C@@H](COCCOC)O[C@H]([C@H]2C)[C@]1(C)O [Dirithromycin]
scaled lipid accumulation score: inactive: ≤ 0 | scaled lipid accumulation score [1]: inactive: ≤ 0 | scaled lipid accumulation score [2]: inactive: ≤ -0.001 and inactive: 0.267

O=C1CC2(CCCC2)CC(=O)N1CCCCN1CCN(c2ncccn2)CC1 [Buspirone HCl]
scaled lipid accumulation score [1]: inactive: ≤ 0 | scaled lipid accumulation score (library stock concentration: 5.2 mM): inactive: 0.036 | scaled lipid accumulation score [2]: inactive: 0.058

O=C1CC2(CCCC2)CC(=O)N1CCCCN1CCN(c2ncccn2)CC1 [Buspar]
scaled lipid accumulation score [2]: inactive: 0.124

O=C1CC2(CCCC2)CC(=O)N1CCCCN1CCN(c2ncccn2)CC1 [Buspirone hydrochloride]
scaled lipid accumulation score (library stock concentration: 4.7 mM): inactive: ≤ 0 | scaled lipid accumulation score [2]: inactive: 0.089 and inactive: 0.028

CC(C)c1cc(-c2ccc(F)c3ccccc23)nc(N)n1
scaled lipid accumulation score [1]: inactive: 0.006 | scaled lipid accumulation score [2]: inactive: ≤ 0

O=C(NOC[C@H](O)CO)c1ccc(F)c(F)c1Nc1ccc(I)cc1F
scaled lipid accumulation score [3]: inactive: ≤ -0.009 | scaled lipid accumulation score [4]: inactive: 0.009 and inactive: ≤ -0.005 | scaled lipid accumulation score [5]: inactive: ≤ -0.009 and inactive: ≤ -0.005 | scaled lipid accumulation score [1]: inactive: ≤ 0 | scaled lipid accumulation score [2]: inactive: ≤ 0 and inactive: 0.067 and inactive: 0.059

Cc1cc(C)c(/C=C2\C(=O)Nc3ccccc32)[nH]1 [Semaxanib (SU5416)]
scaled lipid accumulation score [1]: inactive: ≤ 0 | scaled lipid accumulation score [2]: inactive: 0.145

Cc1cc(C)c(/C=C2\C(=O)Nc3ccccc32)[nH]1 [VEGF Receptor 2 Kinase Inhibitor III]
scaled lipid accumulation score [1]: inactive: ≤ 0

Cc1cc(C)c(/C=C2\C(=O)Nc3ccccc32)[nH]1
scaled lipid accumulation score [6]: inactive: ≤ 0 | scaled lipid accumulation score [2]: inactive: ≤ 0 and inactive: 0.011

CCn1nc(C(=O)O)c(=O)c2cc3c(cc21)OCO3 [Cinoxacin]
scaled lipid accumulation score: inactive: 0.021 | scaled lipid accumulation score (library stock concentration: 7.6 mM): inactive: ≤ -0.001 | scaled lipid accumulation score [2]: inactive: ≤ 0 and inactive: 0.088

Cc1cc(/C=C/c2ccc3cc(N(C)C)ccc3[n+]2C)c(C)n1-c1ccccc1 [Pyrvinium pamoate]
scaled lipid accumulation score: inactive: ≤ 0 | scaled lipid accumulation score (library stock concentration: 2.6 mM): inactive: 0.485 | scaled lipid accumulation score [2]: inactive: 0.763

CCCCN1CCC(CCC(=O)c2cc(Cl)c(N)cc2OC)CC1
scaled lipid accumulation score [2]: inactive: 0.511

O=c1c(-c2ccc(O)cc2)coc2c([C@@H]3O[C@H](CO)[C@@H](O)[C@H](O)[C@H]3O)c(O)ccc12 [Puerarin]
scaled lipid accumulation score [1]: inactive: ≤ 0 | scaled lipid accumulation score [2]: inactive: ≤ 0

COCCOC(=O)C1=C(C)NC(C)=C(C(=O)OC/C=C/c2ccccc2)C1c1cccc([N+](=O)[O-])c1 (configuration not stated) [Cilnidipine]
scaled lipid accumulation score [1]: inactive: ≤ 0 | scaled lipid accumulation score [2]: inactive: ≤ 0 and inactive: ≤ -0.07 and inactive: ≤ -0.001

O=C1c2ccccc2C(Cc2ccnc(F)c2)(Cc2ccnc(F)c2)c2ccccc21
scaled lipid accumulation score [2]: inactive: ≤ -0.001

CCCCNc1ccc(C(=O)OCCOCCOCCOCCOCCOCCOCCOCCOCCOC)cc1 [Benzonatate]
scaled lipid accumulation score: inactive: 0.073

Cc1cc([C@@H](C)Nc2ccccc2C(=O)O)c2nc(N3CCOCC3)cc(=O)n2c1
scaled lipid accumulation score [3]: inactive: ≤ 0 | scaled lipid accumulation score [4]: inactive: ≤ 0 | scaled lipid accumulation score [5]: inactive: 0.003 | scaled lipid accumulation score [1]: inactive: 0.02 | scaled lipid accumulation score [2]: inactive: 0.074 and inactive: ≤ 0

O=C(O)/C=C/c1ccc(Cn2ccnc2)cc1
scaled lipid accumulation score [2]: inactive: ≤ 0

O=C(O)/C=C/c1ccc(Cn2ccnc2)cc1 [Ozagrel]
scaled lipid accumulation score [6]: inactive: ≤ 0 | scaled lipid accumulation score [1]: inactive: ≤ 0 | scaled lipid accumulation score (library stock concentration: 8.8 mM): inactive: ≤ -0.006 | scaled lipid accumulation score [2]: inactive: ≤ 0

O=C(O)/C=C/c1ccc(Cn2ccnc2)cc1 [Ozagrel HCl]
scaled lipid accumulation score [1]: inactive: ≤ 0 | scaled lipid accumulation score [2]: inactive: ≤ 0

O=C(O)/C=C/c1ccc(Cn2ccnc2)cc1 [Ozagrel hydrochloride]
scaled lipid accumulation score: inactive: ≤ 0 | scaled lipid accumulation score [2]: inactive: 0.011

COc1cc2nccc(Oc3ccc(NC(=O)C4(C(=O)Nc5ccc(F)cc5)CC4)cc3)c2cc1OC
scaled lipid accumulation score [3]: inactive: 0.011 | scaled lipid accumulation score [4]: inactive: ≤ -0.016 | scaled lipid accumulation score [5]: inactive: 0.189 | scaled lipid accumulation score [1]: inactive: 0.757 | scaled lipid accumulation score [2]: inactive: 0.459 and inactive: 0.491

COc1cc2nccc(Oc3ccc(NC(=O)C4(C(=O)Nc5ccc(F)cc5)CC4)cc3)c2cc1OC [Cabozantinib malate (XL184)]
scaled lipid accumulation score [1]: inactive: 0.354 | scaled lipid accumulation score [2]: inactive: 0.677

CNC(=O)c1cc(COc2nnc(Nc3ccc(Cl)cc3)c3ccoc23)ccn1 [Telatinib]
scaled lipid accumulation score [1]: inactive: 0.276 | scaled lipid accumulation score [2]: inactive: 0.248

Oc1ccc(OCc2ccccc2)cc1 [Monobenzone]
scaled lipid accumulation score: inactive: ≤ 0 | scaled lipid accumulation score [1]: inactive: ≤ 0 | scaled lipid accumulation score [2]: inactive: ≤ 0

Cc1cc(/C(=C/Nc2ccc(Cl)cc2)C(=O)Nc2ccc(Cl)cc2)on1
scaled lipid accumulation score [2]: inactive: 0.332

CCCn1c(=O)c2c(ncn2C)n(CCC)c1=O [1,3-Dipropyl-7-methylxanthine]
scaled lipid accumulation score [2]: inactive: ≤ -0.07

CC(C)COCC(CN(Cc1ccccc1)c1ccccc1)N1CCCC1.Cl (configuration not stated)
scaled lipid accumulation score (library stock concentration: 12.4 mM): active: 0.96

C[C@H]1C[C@H]2[C@@H]3CCC4=CC(=O)C=C[C@]4(C)[C@@]3(F)[C@@H](O)C[C@]2(C)[C@@]1(O)C(=O)CO [Betamethasone]
scaled lipid accumulation score: inactive: 0.042 | scaled lipid accumulation score [1]: inactive: ≤ 0 | scaled lipid accumulation score (library stock concentration: 4 mM): inactive: ≤ 0 | scaled lipid accumulation score [2]: inactive: ≤ 0

CCCCCC=CCC=CCC=CCC=CCCCC(=O)OCC(O)CO (configuration not stated) [1-Arachidonoyl Glycerol]
scaled lipid accumulation score [6]: inactive: 0.012

C=C1/C(=C\C=C2/CCC[C@]3(C)[C@@H]([C@H](C)/C=C/[C@@H](O)C4CC4)CC[C@@H]23)C[C@@H](O)C[C@@H]1O [Calcipotriol]
scaled lipid accumulation score [2]: inactive: 0.022

C=C1/C(=C\C=C2/CCC[C@]3(C)[C@@H]([C@H](C)/C=C/[C@@H](O)C4CC4)CC[C@@H]23)C[C@@H](O)C[C@@H]1O [Calcipotriene]
scaled lipid accumulation score (library stock concentration: 4.8 mM): inactive: ≤ -0.006

Cc1ccc(Cl)c(Nc2ccccc2C(=O)O)c1Cl [Meclomen]
scaled lipid accumulation score [2]: inactive: ≤ 0

Cc1ccc(Cl)c(Nc2ccccc2C(=O)O)c1Cl [Meclofenamate sodium]
scaled lipid accumulation score (library stock concentration: 6.3 mM): inactive: 0.011

Cc1ccc(Cl)c(Nc2ccccc2C(=O)O)c1Cl [Meclofenamate Sodium]
scaled lipid accumulation score [1]: inactive: ≤ 0 | scaled lipid accumulation score [2]: inactive: ≤ -0.001

Cc1ccc(Cl)c(Nc2ccccc2C(=O)O)c1Cl [Meclofenamic acid sodium]
scaled lipid accumulation score [2]: inactive: 0.133

Cc1ccc(Cl)c(Nc2ccccc2C(=O)O)c1Cl [Meclofenamate (sodium salt)]
scaled lipid accumulation score [6]: inactive: 0.041

Cc1ccc(Cl)c(Nc2ccccc2C(=O)O)c1Cl [Meclofenamic acid sodium salt monohydrate]
scaled lipid accumulation score: inactive: ≤ 0
